# Experimental data published in paper PMC7819943, “Rice protein-binding microarrays: a tool to detect cis-acting elements near promoter regions in rice”.
# Some of the results follow.
# Target: T1, OsWOX13 (Oryza sativa, UniProt Q5QMM3 1-267)
# T1 sequence: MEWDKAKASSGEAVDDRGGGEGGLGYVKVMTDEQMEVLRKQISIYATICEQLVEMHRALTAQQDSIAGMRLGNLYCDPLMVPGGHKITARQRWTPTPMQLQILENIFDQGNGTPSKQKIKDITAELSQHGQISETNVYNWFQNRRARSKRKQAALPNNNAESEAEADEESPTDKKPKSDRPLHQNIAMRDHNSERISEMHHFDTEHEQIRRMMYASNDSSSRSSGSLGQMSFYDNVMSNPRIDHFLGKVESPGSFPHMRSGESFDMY
# Experiment: protein-binding microarray (RPBM); PBS, 2% BSA, 51.3 ng/ul salmon testes DNA, 50 uM zinc acetate, 200 nM TF, 25 C, 1 h; high values mean tight binding
# Conditions: protein: recombinant; tags: N-terminal polyhistidine and DsRed monomer fusion (pET32a); label: CyDye5-dUTP incorporated in the synthesized complementary strand; 3' TTTTT single-stranded linker to array surface; dsDNA, one strand shown
# Method in brief: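 A custom Agilent array was converted to double-stranded form by primer extension with Cy5-dUTP and blocked with 2% BSA. Protein at 200 nM in PBS with 2% BSA, salmon testes DNA and 50 µM zinc acetate was applied for 1 h at 25 °C, followed by washing. The proteins were polyhistidine–DsRed N-terminal fusions of transcription factors, expressed in E. coli BL21-CodonPlus and Ni–NTA-purified. The binding signal is per-feature fluorescence intensity (arbitrary units) from an Axon 4000B scanner.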
row,Sequence,binding signal
1,TTTGCTTAATTAAGAATTTTGAATTTTCTACCGCTATTTCCGGAGTCACCTAGTGCAG,20200 fluorescence intensity (a.u.)
2,CTTAAATAACCAATTTAGTATTGAATATAACATATTATTCCGGAGTCACCTAGTGCAG,5830 fluorescence intensity (a.u.)
3,TTCCAATCACATTCTTAGTCAACACCATCCATGCTGTCGACGGAGTCACCTAGTGCAG,20700 fluorescence intensity (a.u.)
4,ATCATTGGATTAATATATAAATTTACTTTCATATGGTTGTCGGAGTCACCTAGTGCAG,5320 fluorescence intensity (a.u.)
5,GTCATTTGATTAGCTCTAAAGCTATTTCTATCACTTCTCACGGAGTCACCTAGTGCAG,24200 fluorescence intensity (a.u.)
6,AGATTGATTGCCGTGTTCATGCGTAGCCACCGTCCCTAAACGGAGTCACCTAGTGCAG,34800 fluorescence intensity (a.u.)
7,CGAGGTTTCTGTTTGTTAATTACTTACCGTGACAGTGAGCCGGAGTCACCTAGTGCAG,3760 fluorescence intensity (a.u.)
8,GCAAATTGAACTCTCTTCTAACGGAAGCATCCTAGCTAGCCGGAGTCACCTAGTGCAG,21800 fluorescence intensity (a.u.)
9,CACCAGATTGGGACGTCAATCCTACCCGTGGTATGGGTATCGGAGTCACCTAGTGCAG,19000 fluorescence intensity (a.u.)
10,TTACCAAATTTCACTGTTAACAGCGGTGCGTGGGTATTGACGGAGTCACCTAGTGCAG,6390 fluorescence intensity (a.u.)
11,ACATTGTTAAATCATGGCCTAATTAGACTTAAAAGATTCACGGAGTCACCTAGTGCAG,10400 fluorescence intensity (a.u.)
12,ATATGAAATTACTTAATCTAATTCAAAATATAACCACATGCGGAGTCACCTAGTGCAG,8360 fluorescence intensity (a.u.)
13,AATTCGTACTGATTGGGCGATTGGCTGGTGGTAGTATTATCGGAGTCACCTAGTGCAG,21000 fluorescence intensity (a.u.)
14,TGAAACCACAATTGATGTTAACACATAAATTTCTTCCCTTCGGAGTCACCTAGTGCAG,5390 fluorescence intensity (a.u.)
15,TTTTGATTAGTTTAGGGACACCGGATATCTGGTTTTGTGGCGGAGTCACCTAGTGCAG,50700 fluorescence intensity (a.u.)
16,GATAGGATTAGATGAAAGGTTGACTGACTGCTCAAGCGATCGGAGTCACCTAGTGCAG,7750 fluorescence intensity (a.u.)
17,ACATTTCTTGTTCAATTGACAGATCTTGAGAAAAGGAAGGCGGAGTCACCTAGTGCAG,5360 fluorescence intensity (a.u.)
18,ACGTCAAACTAATCATGCATACCGATCGCGTCAATGCAAGCGGAGTCACCTAGTGCAG,3300 fluorescence intensity (a.u.)
19,CTTATGCTAATTTGGCTATCTTCAAGAGGTCTGTTTGCAACGGAGTCACCTAGTGCAG,3580 fluorescence intensity (a.u.)
20,TGATAGGAAAATAATTAATAATTATTTAAATATTTTAAATCGGAGTCACCTAGTGCAG,7330 fluorescence intensity (a.u.)
21,ATTCTGATTGGCTCCTCCTGTAGGAATTAGGATTTAGGAGCGGAGTCACCTAGTGCAG,35700 fluorescence intensity (a.u.)
22,ATCTATTTATTTCTAATTTACAATTATAAATGATGTGGTGCGGAGTCACCTAGTGCAG,26300 fluorescence intensity (a.u.)
23,GTGCCAAATTTGCTTCCTCCTCCCTTTCAACATGGTTCGTCGGAGTCACCTAGTGCAG,3380 fluorescence intensity (a.u.)
